The list shows a part of the results.
B1: PhoQ; a variant is named by its letters at X, in order, P23837 (parent)
chain: MKKLLRLFFPLSLRVRFLLATAAVVLVLSLAYGMVALIGYSVSFDKTTFRLLRGESNLFYTLAKWENNKLHVELPENIDKQSPTMTLIYDENGQLLWAQRDVPWLMKMIQPDWLKSNGFHEIEADVNDTSLLLSGDHSIQQQLQEVREDDDDAEMTHSVAVNVYPATSRMPKLTIVVVDTIPVELKSSYMVWSWFIYVLSANLLLVIPLLWVAAWWSLRPIEALAKEVRELEEHNRELLNPATTRELTSLVRNLNRLLKSERERYDKYRTTLTDLTHSLKTPLXXLQXXLRSLRSEKMSVSDAEPVMLEQISRISQQIGYYLHRASMRGGTLLSRELHPVAPLLDNLTSALNKVYQRKGVNISLDISPEISFVGEQNDFVEVMGNVLDNACKYCLEFVEISARQTDEHLYIVVEDDGPGIPLSKREVIFDRGQRVDTLRPGQGVGLAVAREITEQYEGKIVAGESMLGGARMEVIFGRQHSAPKDE

Variants of: B1
Experiment: enrichment ratio after two sorts for PhoP signalling (ratio (wild type AVST 3.29)); higher = more functional
Details: with PhoP (E. coli)

Row | Variant | enrichment ratio
1 | MMFH | ≤ 0.25
2 | FQMP | ≤ 0.25
3 | QKVQ | ≤ 0.25
4 | TNLA | 8.08
5 | QSCL | 0.738
6 | NLFS | ≤ 0.25
7 | TSRQ | ≤ 0.25
8 | KETH | 2.2
9 | TVWW | ≤ 0.25
10 | VITW | ≤ 0.25
11 | AFTM | 3.07
12 | LSGG | ≤ 0.25
13 | PQYQ | ≤ 0.25
14 | GHKF | ≤ 0.25
15 | AKSP | ≤ 0.25
16 | LNKG | ≤ 0.25
17 | DGSL | ≤ 0.25
18 | MYPR | ≤ 0.25
19 | QDVT | ≤ 0.25
20 | VLPT | ≤ 0.25
21 | RPIC | ≤ 0.25
22 | NTEP | ≤ 0.25
23 | GKYC | ≤ 0.25
24 | GIWI | ≤ 0.25

Row | Variant | enrichment ratio
25 | SNTC | 6.48
26 | KKMV | ≤ 0.25
27 | NSSK | ≤ 0.25
28 | YKTA | ≤ 0.25
29 | IHQV | ≤ 0.25
30 | WWSI | ≤ 0.25
31 | RSCE | ≤ 0.25
32 | WTCP | ≤ 0.25
33 | RCIH | ≤ 0.25
34 | DLPY | ≤ 0.25
35 | KAND | ≤ 0.25
36 | LPTR | ≤ 0.25
37 | ECRQ | ≤ 0.25
38 | DAKH | ≤ 0.25
39 | KKVL | ≤ 0.25
40 | IQSL | ≤ 0.25
41 | YWNC | ≤ 0.25
42 | VQCR | ≤ 0.25
43 | YRPQ | ≤ 0.25
44 | ECHD | ≤ 0.25
45 | WFFH | ≤ 0.25
46 | GGKP | ≤ 0.25
47 | EGYP | ≤ 0.25
48 | YLRT | ≤ 0.25

Row | Variant | enrichment ratio
49 | EDCW | ≤ 0.25
50 | STSC | 11.6
51 | KPYF | ≤ 0.25
52 | RWFM | ≤ 0.25
53 | GLTR | ≤ 0.25
54 | PLRW | ≤ 0.25
55 | SYCH | 0.609
56 | TWFA | ≤ 0.25
57 | HLLK | ≤ 0.25
58 | YFIN | ≤ 0.25
59 | FKEK | ≤ 0.25
60 | IPSM | ≤ 0.25
61 | KTSP | ≤ 0.25
62 | WPFN | ≤ 0.25
63 | AGSL | 10.4
64 | PQYH | ≤ 0.25
65 | YIFQ | ≤ 0.25
66 | RGAG | ≤ 0.25
67 | MMSC | ≤ 0.25
68 | LFRD | ≤ 0.25
69 | HSAF | ≤ 0.25
70 | LPNK | ≤ 0.25
71 | IRYC | ≤ 0.25
72 | PQKA | ≤ 0.25

Row | Variant | enrichment ratio
73 | FCAR | ≤ 0.25
74 | IYVF | ≤ 0.25
75 | AKAL | 11.1
76 | QIVD | ≤ 0.25
77 | LNNR | ≤ 0.25
78 | NLPI | ≤ 0.25
79 | MSSE | ≤ 0.25
80 | RFGE | ≤ 0.25
81 | HSCS | ≤ 0.25
82 | YGCR | ≤ 0.25
83 | SEEF | ≤ 0.25
84 | IWFE | ≤ 0.25
85 | GLKH | ≤ 0.25
86 | PPYN | ≤ 0.25
87 | ETLF | ≤ 0.25
88 | DNLW | ≤ 0.25
89 | EPTH | ≤ 0.25
90 | RQDV | 0.887
91 | SGRG | ≤ 0.25
92 | TSAR | ≤ 0.25
93 | YVFS | ≤ 0.25
94 | TNSI | 15.8
95 | QCWI | 37.7
96 | VYEQ | ≤ 0.25

Row | Variant | enrichment ratio
97 | IWHD | ≤ 0.25
98 | MKSK | ≤ 0.25
99 | MFQR | ≤ 0.25
100 | KIEG | ≤ 0.25
101 | FWVD | ≤ 0.25
102 | VHMS | ≤ 0.25
103 | RAVL | ≤ 0.25
104 | LIHN | ≤ 0.25
105 | DFFN | ≤ 0.25
106 | AQIP | ≤ 0.25
107 | HSKE | ≤ 0.25
108 | YPFD | ≤ 0.25
109 | PIAI | ≤ 0.25
110 | YGCE | ≤ 0.25
111 | VDNG | ≤ 0.25
112 | SWPQ | ≤ 0.25
113 | LMFL | ≤ 0.25
114 | YFRH | 0.332
115 | IWLI | ≤ 0.25
116 | RRGA | ≤ 0.25
117 | DNTD | ≤ 0.25
118 | INSF | ≤ 0.25
119 | QAYG | 8.22
120 | GARN | ≤ 0.25

Row | Variant | enrichment ratio
121 | IRLV | ≤ 0.25
122 | FADH | ≤ 0.25
123 | LQPQ | ≤ 0.25
124 | EMPN | ≤ 0.25
125 | IRDV | ≤ 0.25
126 | IDPI | ≤ 0.25
127 | RCNH | ≤ 0.25
128 | LSAY | ≤ 0.25
129 | EMRA | ≤ 0.25
130 | DVRF | ≤ 0.25
131 | YLCW | ≤ 0.25
132 | EELR | ≤ 0.25
133 | ARAQ | ≤ 0.25
134 | NFAH | ≤ 0.25
135 | RLEL | ≤ 0.25
136 | IEID | ≤ 0.25
137 | LNKD | ≤ 0.25
138 | EVGR | ≤ 0.25
139 | WLSW | ≤ 0.25
140 | MVCK | 2.16
141 | AWVI | 0.484
142 | NGPV | ≤ 0.25
143 | FMAR | ≤ 0.25
144 | ANRH | ≤ 0.25

Row | Variant | enrichment ratio
145 | MTAE | ≤ 0.25
146 | FFKW | ≤ 0.25
147 | YHKK | ≤ 0.25
148 | WRPV | ≤ 0.25
149 | MGRF | ≤ 0.25
150 | NWVC | ≤ 0.25
151 | SWEL | ≤ 0.25
152 | PKNW | ≤ 0.25
153 | VGEW | ≤ 0.25
154 | PAQS | ≤ 0.25
155 | QYGN | ≤ 0.25
156 | DWPD | ≤ 0.25
157 | GYSM | ≤ 0.25
158 | AKYC | 0.363
159 | YKDG | ≤ 0.25
160 | MHNA | ≤ 0.25
161 | DYMT | ≤ 0.25
162 | SIHP | ≤ 0.25
163 | MRHD | ≤ 0.25
164 | DWMV | ≤ 0.25
165 | LGKA | ≤ 0.25
166 | LAHL | 5.85
167 | PSER | ≤ 0.25
168 | SLRI | ≤ 0.25

Row | Variant | enrichment ratio
169 | AVFF | ≤ 0.25
170 | FDRD | ≤ 0.25
171 | IGKT | ≤ 0.25
172 | MEGC | ≤ 0.25
173 | EPYF | ≤ 0.25
174 | GFLE | ≤ 0.25
175 | MAIF | ≤ 0.25
176 | EEDP | ≤ 0.25
177 | PKCR | ≤ 0.25
178 | SPCS | ≤ 0.25
179 | HARF | ≤ 0.25
180 | LGHQ | ≤ 0.25
181 | SDKY | ≤ 0.25
182 | MMWW | ≤ 0.25
183 | PVMA | ≤ 0.25
184 | YSDF | ≤ 0.25
185 | RYDM | ≤ 0.25
186 | KTMV | ≤ 0.25
187 | STAF | 7.65
188 | TETW | 4.76
189 | REFG | ≤ 0.25
190 | KETP | ≤ 0.25
191 | ITMQ | 1.8
192 | MFEY | ≤ 0.25

Row | Variant | enrichment ratio
193 | KSGG | ≤ 0.25
194 | VEKI | ≤ 0.25
195 | PYHE | ≤ 0.25
196 | NDCF | ≤ 0.25
197 | YFNG | ≤ 0.25
198 | WKFD | ≤ 0.25
199 | IYWT | ≤ 0.25
200 | RNGA | ≤ 0.25
201 | SVWQ | ≤ 0.25
202 | KGDM | ≤ 0.25
203 | NYQE | ≤ 0.25
204 | YLMI | ≤ 0.25
205 | IEQI | ≤ 0.25
206 | IPWY | ≤ 0.25
207 | HDPN | ≤ 0.25
208 | NPKV | ≤ 0.25
209 | LQTD | ≤ 0.25
210 | PWVQ | ≤ 0.25
211 | MYHL | ≤ 0.25
212 | SKSQ | 1.28
213 | EMYM | ≤ 0.25
214 | HYCI | ≤ 0.25
215 | PWNI | ≤ 0.25
216 | VARI | ≤ 0.25

Row | Variant | enrichment ratio
217 | RSGP | ≤ 0.25
218 | ASDC | ≤ 0.25
219 | YYTW | ≤ 0.25
220 | LAGV | ≤ 0.25
221 | EHCP | ≤ 0.25
222 | NWDN | ≤ 0.25
223 | RGHI | ≤ 0.25
224 | ATVS | 2.56
225 | TVTN | 4.67
226 | KLPR | ≤ 0.25
227 | SDSE | ≤ 0.25
228 | PRAQ | ≤ 0.25
229 | QPTT | ≤ 0.25
230 | IFWA | ≤ 0.25
231 | VDWT | ≤ 0.25
232 | DCNG | ≤ 0.25
233 | SYFN | ≤ 0.25
234 | AVFH | ≤ 0.25
235 | KLAS | ≤ 0.25
236 | HYQF | ≤ 0.25
237 | NFIW | ≤ 0.25
238 | RLIV | ≤ 0.25
239 | KDIE | ≤ 0.25
240 | QVVG | ≤ 0.25

Row | Variant | enrichment ratio
241 | ENTC | ≤ 0.25
242 | VVRW | ≤ 0.25
243 | QFRP | ≤ 0.25
244 | NSRT | ≤ 0.25
245 | ACLS | 6.09
246 | FYSN | ≤ 0.25
247 | AWMH | ≤ 0.25
248 | SSYR | ≤ 0.25
249 | VMEW | ≤ 0.25
250 | WNDK | ≤ 0.25
251 | IMDS | ≤ 0.25
252 | SYDR | ≤ 0.25
253 | DNMN | ≤ 0.25
254 | SWHN | ≤ 0.25
255 | FPYM | ≤ 0.25
256 | KFGP | ≤ 0.25
257 | SLPL | 2.37
258 | AQFY | ≤ 0.25
259 | SMFT | 0.876
260 | IAYC | ≤ 0.25
261 | KNRC | ≤ 0.25
262 | MQFT | 10.8
263 | SRHP | ≤ 0.25
264 | YDWW | ≤ 0.25

Row | Variant | enrichment ratio
265 | QQLF | ≤ 0.25
266 | EGLV | 1.8
267 | VYGQ | ≤ 0.25
268 | TRHF | ≤ 0.25
269 | KNSF | ≤ 0.25
270 | RMCP | ≤ 0.25
271 | KRVV | ≤ 0.25
272 | PCST | ≤ 0.25
273 | HHLW | ≤ 0.25
274 | RDLA | 1.12
275 | VAGL | 1.62
276 | GACV | ≤ 0.25
277 | DPQQ | ≤ 0.25
278 | RIQP | ≤ 0.25
279 | SIEH | ≤ 0.25
280 | HFNG | ≤ 0.25
281 | DHAA | ≤ 0.25
282 | NEEA | ≤ 0.25
283 | GLLP | ≤ 0.25
284 | TQHF | 16.2
285 | WDFL | ≤ 0.25
286 | YFEY | ≤ 0.25
287 | ESGT | ≤ 0.25
288 | RWTV | ≤ 0.25

Row | Variant | enrichment ratio
289 | HTKR | ≤ 0.25
290 | DHGR | ≤ 0.25
291 | MCRE | ≤ 0.25
292 | ARWF | ≤ 0.25
293 | MDPL | ≤ 0.25
294 | KRYG | ≤ 0.25
295 | EENK | ≤ 0.25
296 | FQQR | ≤ 0.25
297 | KMIP | ≤ 0.25
298 | WVNS | ≤ 0.25
299 | SARP | ≤ 0.25
300 | FAGK | ≤ 0.25
301 | RFQK | ≤ 0.25
302 | LQTI | ≤ 0.25
303 | YMVI | ≤ 0.25
304 | ACVT | 1.11
305 | VVRF | ≤ 0.25
306 | VMKC | ≤ 0.25

From a collection of fitness landscapes (doi:10.1126/science.1257360)
